The structures appear in SMILES notation. Some entries of the source have several records that differ or are many. The list is limited to them. The source may hold further records. For part of these data: The values listed for one entry read as repeated measurements on other runs, samples or individuals. For part of these data: Results that share an entry seem to repeat one measurement; a mean can stand among them.

The assay concerns the target T1, particulate guanylyl cyclase receptor A (pGC-A) (Homo sapiens, UniProt P16066).
T1 construct: expressed in transfected cells; host or cells: HEK293
T1 sequence (P16066 33-1061): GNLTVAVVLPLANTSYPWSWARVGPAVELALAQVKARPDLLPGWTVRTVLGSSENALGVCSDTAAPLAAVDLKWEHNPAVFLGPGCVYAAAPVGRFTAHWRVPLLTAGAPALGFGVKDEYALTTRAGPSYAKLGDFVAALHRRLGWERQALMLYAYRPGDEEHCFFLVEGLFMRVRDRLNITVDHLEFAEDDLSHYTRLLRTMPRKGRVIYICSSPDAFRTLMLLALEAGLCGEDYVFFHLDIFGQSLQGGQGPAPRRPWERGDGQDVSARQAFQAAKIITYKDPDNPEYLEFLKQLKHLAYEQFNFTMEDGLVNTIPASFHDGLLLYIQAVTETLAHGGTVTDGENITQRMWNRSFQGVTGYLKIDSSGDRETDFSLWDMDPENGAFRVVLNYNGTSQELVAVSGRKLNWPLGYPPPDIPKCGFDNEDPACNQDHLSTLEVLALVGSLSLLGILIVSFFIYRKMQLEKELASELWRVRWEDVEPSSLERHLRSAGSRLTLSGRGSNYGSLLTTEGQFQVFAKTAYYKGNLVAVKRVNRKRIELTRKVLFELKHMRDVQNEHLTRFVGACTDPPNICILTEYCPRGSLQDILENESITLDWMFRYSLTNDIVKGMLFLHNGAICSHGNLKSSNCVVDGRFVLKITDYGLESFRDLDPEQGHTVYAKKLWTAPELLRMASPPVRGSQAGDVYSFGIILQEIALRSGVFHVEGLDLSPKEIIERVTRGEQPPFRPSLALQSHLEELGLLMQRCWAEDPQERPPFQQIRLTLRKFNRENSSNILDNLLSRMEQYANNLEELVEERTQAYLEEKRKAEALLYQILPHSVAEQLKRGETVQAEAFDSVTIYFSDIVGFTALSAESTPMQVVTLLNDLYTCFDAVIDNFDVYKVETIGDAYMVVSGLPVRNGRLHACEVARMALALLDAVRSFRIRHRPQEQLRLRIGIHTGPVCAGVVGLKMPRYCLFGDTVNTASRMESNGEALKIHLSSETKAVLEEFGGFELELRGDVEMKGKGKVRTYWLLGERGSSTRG
T1 sequence (P01160 124-151 partner limits assumed): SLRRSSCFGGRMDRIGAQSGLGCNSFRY
The assay can be described thus: cGMP production by HTRF in HEK293 cells overexpressing pGC-A, with ANP. It counts as cell-based. To be noted: test compound plus EC20 concentration of ANP. From the text: Assay: Generally, the assay monitors the production of cGMP, the second messenger generated by pGC-A, by Time-Resolved Florescence (HTRF) in HEK293 cells overexpressing the pGC-A. pGC-A suspension cells were stimulated in the presence of the test compound and an EC20 concentration of ANP. The quantity of cGMP was detected by competitive immunoassay using Eu^3+ cryptate-labeled anti-cGMP and d2-labeled cGMP and normalized to maximal amount produced by an EC80 concentration of ANP. Compound EC50 values were determined in the primary assay, in the presence or absence of ANP, to determine mode of action as positive modulators and tested for selectivity in the same assay platform but in HEK cells overexpressing the particulate guanylyl cyclase B receptor (pGC-B), of which CNP is the endogenous ligand.
Assay details: 20 nL of 10 μM test compound in DMSO was added to columns 5-48 of 1536 well white high base screening plates (Corning, New York, NY) cells using 550 ECHO acoustic dispenser (Labcyte, San Jose, CA). Alpha-atrial natriuretic peptide (ANP) (Phoenix Pharmaceutics) was prepared as stock aliquots at 5 μM in PBS with 0.1% BSA. An approximate […] concentration of ANP ([…]) in assay buffer (HBSS containing 5 mM HEPES and 0.05% BSA) was added to columns 3-48 at a volume of 1 μL. Assay buffer only was added to column 1 and assay buffer containing a saturating concentration of ANP (5 nM) was added to column 2. HEK293 cells overexpressing GC-A were resuspended in assay media (OptimMem media containing 2% Heat-inactivated Fetal bovine serum and L-glutamine) at a density of 6×10^5 cells/mL and 2 μL were plated in screening plates (1200 cells/well) in suspension using a Bioraptr 2. Plates were spun at 1000 rpm for 1 min and incubated for 30 min at room temperature. 1.5 μL d2-labeled cGMP followed by 1.5 μL Eu^3+ cryptate-labeled anti-cGMP cGMP detection kit (CiBio; #62GM2PEC) prepared according to manufacturer's protocol were added to all wells using a Bioraptr 2 and TR-FRET signal was detected on an EnVision detector (PerkinElmer). […]
(In general: Time-resolved FRET reads energy transfer from a long-lived donor to a nearby acceptor.)
One may read the EC50 as the concentration at which the effect is half-maximal. Turning to `O=C(Nc1nc2c(F)cc(F)cc2[nH]1)C1CCCNC1` (stereo not drawn) [249b], the EC50 was 22 µM and 1.4 µM [one cell]. The result for `CN1CCCC(N2CCCC(C(=O)Nc3nc4c(F)cc(F)cc4s3)C2)C1` (stereo not drawn) [compound 070] reads 700 nM, 1.01 µM, 100 nM [one cell]; that for `CNCCN1CCCC(C(=O)Nc2nc3c(F)cc(F)cc3s2)C1` (stereo not drawn) [compound 237], 390 nM and 4.6 µM [one cell].

The values above are taken from US20250092030A1, “ENHANCERS OF PARTICULATE GUANYLYL CYCLASE RECEPTOR A” (Mayo Foundation for Medical Education and Research, priority 2023, published 2025).
